# Measurements as given in publication PMC4336329 (PLoS ONE, 2015).
# About 2,200 (0.71%) of roughly 310,000 compounds showed an effect of 50% or more. Effects have a minus sign here. This is one part of the list.
# Molecular target: human ether-à-go-go-related gene (hERG) potassium channel (human, UniProt Q12809)
# Experiment: primary screen, population patch clamp on CHO cells stably expressing hERG
# human ether-à-go-go-related gene (hERG) potassium channel, sequence (Q12809 whole entry, looked up): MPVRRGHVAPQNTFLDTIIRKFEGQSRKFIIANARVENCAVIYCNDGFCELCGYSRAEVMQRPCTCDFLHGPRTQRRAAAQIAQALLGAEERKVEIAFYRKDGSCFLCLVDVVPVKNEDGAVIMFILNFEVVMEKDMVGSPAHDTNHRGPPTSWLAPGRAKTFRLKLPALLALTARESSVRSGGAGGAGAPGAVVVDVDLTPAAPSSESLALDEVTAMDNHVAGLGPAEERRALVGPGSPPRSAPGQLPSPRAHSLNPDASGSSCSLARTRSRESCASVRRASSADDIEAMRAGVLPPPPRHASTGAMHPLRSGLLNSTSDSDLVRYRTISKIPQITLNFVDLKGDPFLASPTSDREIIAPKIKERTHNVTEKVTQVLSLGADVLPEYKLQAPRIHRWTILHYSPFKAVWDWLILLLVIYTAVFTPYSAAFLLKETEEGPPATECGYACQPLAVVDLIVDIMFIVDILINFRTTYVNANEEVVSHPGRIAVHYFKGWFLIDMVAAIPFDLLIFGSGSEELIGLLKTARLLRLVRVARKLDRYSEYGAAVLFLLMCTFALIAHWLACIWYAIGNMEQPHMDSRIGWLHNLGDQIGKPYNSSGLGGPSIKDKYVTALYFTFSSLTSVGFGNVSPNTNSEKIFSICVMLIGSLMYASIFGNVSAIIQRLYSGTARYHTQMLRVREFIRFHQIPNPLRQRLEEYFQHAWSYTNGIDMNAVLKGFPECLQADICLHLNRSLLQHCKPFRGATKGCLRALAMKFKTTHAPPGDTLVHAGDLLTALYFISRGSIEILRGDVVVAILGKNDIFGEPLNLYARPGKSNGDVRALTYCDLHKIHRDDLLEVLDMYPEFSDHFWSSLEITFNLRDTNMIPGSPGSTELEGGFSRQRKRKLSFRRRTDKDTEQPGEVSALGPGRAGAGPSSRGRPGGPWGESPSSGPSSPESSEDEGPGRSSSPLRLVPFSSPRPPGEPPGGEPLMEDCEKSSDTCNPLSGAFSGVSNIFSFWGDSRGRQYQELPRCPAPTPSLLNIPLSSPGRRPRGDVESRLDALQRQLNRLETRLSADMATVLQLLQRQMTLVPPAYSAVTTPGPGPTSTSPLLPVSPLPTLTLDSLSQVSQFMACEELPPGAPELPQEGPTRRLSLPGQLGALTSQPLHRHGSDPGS
row,SMILES,"hERG current change (%, negative = inhibition) at 1uM"
1,COc1cc(NC(=S)Nc2ccccn2)cc(OC)c1OC,7.59%
2,CC(NC(=O)CSc1ccccc1)c1ccccc1 (stereo not drawn),17.8%
3,Cn1ncc(N=Cc2ccccc2O)c1C(=O)Nc1ccccc1,1.34%
4,CCSCC1COC(c2cccn2Cc2ccc(C)cc2)=N1 (stereo not drawn),3.45%
5,Cc1ccc(C)c(NC(=O)CCC(=O)N2CCOc3ccccc32)c1,9.35%
6,O=C(O)c1cccc(CSc2nc(-c3ccccc3)cc(C(F)(F)F)n2)c1,7.3%
7,O=C(c1cc(F)ccc1F)C1CCCN(Cc2cc(Cl)ccc2O)C1 (stereo not drawn),13.7%
8,CC(=O)Nc1ccc(S(=O)(=O)NCCC(=O)OCc2ccccc2F)cc1,4.78%
9,Cc1c(NC(=O)c2ccc(S(=O)(=O)N(C)C)cc2)cccc1-n1cnnn1,20.7%
10,Cc1c(C(=O)N2CCN(c3ncccn3)CC2)oc2ccc(Cl)cc12,2.57%
11,Cc1ccc(S(=O)(=O)Cn2nnnc2CN(Cc2ccco2)CC2CCCO2)cc1 (stereo not drawn),3.47%
12,CCOC(=O)c1sc2ccc(S(=O)(=O)N3CCOCC3)cc2c1N,10.6%
13,COC(=O)c1ccc(CN2C(=O)NC3(CCC(C)CC3)C2=O)cc1 (stereo not drawn),12.2%
14,CN1C(=O)N(c2cccc3ccccc23)C(n2cncn2)C1(C)C (stereo not drawn),11.2%
15,CC(C)c1nnc(NC(=O)C2CCN(c3nc4ccccc4s3)CC2)s1,10.8%
16,Cc1[nH]c2ccccc2c1CC#N,13.7%
17,O=C(O)c1cccnc1C(=O)c1ccccc1,14.1%
18,O=C(NCc1cccs1)c1nc2c(nnn2Cc2ccccc2Cl)c(=O)[nH]1,16.1%
19,CCOCCCNC(=O)C1(O)c2cc(Br)ccc2NC(=O)N1c1ccc(C)c(C)c1 (stereo not drawn),10.4%

row,SMILES,"hERG current change (%, negative = inhibition) at 1uM"
1,Cc1cccc(NC(=S)N2CCC(NC(=O)c3cccc(F)c3)CC2)c1,5.76%
2,COc1ccc(Cl)cc1N(C(=O)c1ccco1)C(C(=O)NC1CCCC1)c1ccncc1 (stereo not drawn),9.16%
3,CC(C)(C)C1CCc2c(sc(NC(=O)c3cccs3)c2C(=O)N2CCCCC2)C1 (stereo not drawn),8.81%
4,O=[N+]([O-])c1ccc(S(=O)(=O)Nc2ccccn2)cc1,15.1%
5,Oc1ccc2ccccc2c1C=Nc1ccc(N2CCOCC2)cc1,7.53%
6,Cc1ccc(/C=N/NC(=O)C(NC(=O)c2ccccc2)c2n[nH]c(=O)c3ccccc23)cc1 (stereo not drawn),10.8%
7,Cc1ccc(S(=O)(=O)N(C)CCCC(=O)Nc2cc(C)ccc2C)cc1,-2.45%
8,CCOc1ccc(NC(=O)CCCN2C(=O)C(c3ccccc3)Oc3cccnc32)cc1 (stereo not drawn),19.8%
9,CC1(c2ccc3noc(-c4ccccc4)c3c2)OCCO1,9.5%
10,O=C(CCC(=O)c1ccc(F)cc1)OC1CCOC1=O (stereo not drawn),-2.8%
11,Cn1c(N)c(S(=O)(=O)N2CCN(c3ccccc3F)CC2)c(=O)n(C)c1=O,8.44%
12,COc1cccc(C(=O)NC(=O)Nc2cc(C)[nH]n2)c1,7.28%
13,COc1ccccc1OCC(=O)NCc1n[nH]c(=O)c2ccccc12,8.33%
14,CC(C)N(N=Nc1ccc([N+](=O)[O-])cc1)C(C)C,8.39%
15,COc1ccc(CN2CNc3nc4ccccc4n3C2)cc1,-0.92%
16,CCN(CC)c1ccc(/C=N/Nc2nc(C)cc(=O)[nH]2)cc1,-6.56%
17,COc1ccc(N(C(=O)c2ccco2)C(C(=O)NC2CCCC2)c2ccc(N(C)C)cc2)cc1 (stereo not drawn),3.88%
18,O=C(c1cnccn1)N(Cc1ccco1)C1(C(=O)NC2CCCCC2)CCCCC1,10.9%
19,O=C(CCCN1C(=O)/C(=C/c2ccccc2Cl)SC1=S)N1CCOCC1,4.54%

row,SMILES,"hERG current change (%, negative = inhibition) at 1uM"
1,COc1ccc(C(=O)Cn2c(Cl)nc3c2c(=O)n(C)c(=O)n3C)cc1,3.55%
2,O=C(O)C(=O)O.O=C1CCCN1CCCNCC(=O)N1c2ccccc2Sc2ccccc21,13.7%
3,CCN(Cc1cc(=O)oc2cc(C)ccc12)c1ccccc1,15.3%
4,O=C(NCCCn1ccnc1)C(=O)NCC1OCCCN1S(=O)(=O)c1ccc(Cl)cc1 (stereo not drawn),1.46%
5,CNS(=O)(=O)c1cc(NC(=O)c2cccc3cccnc23)ccc1C,14.7%
6,CCO[C@@H]1OC(C(=O)O)=C[C@H](c2ccc(C(F)(F)F)cc2)[C@H]1CCCO,13.3%
7,COc1ccc(-c2ccc(SCC(=O)Nc3nnc(C)s3)nn2)cc1,23.2%
8,Cc1cccc(-n2cccc2)c1C#N,0.924%
9,O=S(=O)(c1ccccc1)c1nc(-c2ccccc2)oc1NCc1cccnc1,10.6%
10,CN(c1ccc(F)cc1)S(=O)(=O)c1ccc2[nH]cc(C(=O)O)c(=O)c2c1,14.4%
11,CN1C(=O)CSc2ccc(NC(=O)NCc3ccco3)cc21,14.8%
12,Cc1ccccc1-c1nc2ccccc2c(=O)n1C,14.9%
13,COCCCn1c(SC(C)C(=O)NC2CC2)nc2ccccc2c1=O (stereo not drawn),-1.47%
14,CC1(C)CCC[C@]2(C)[C@H]3CC(=O)O[C@]3(C)CC[C@@H]12,8.28%
15,O=C(CN1C(=O)c2ccccc2S1(=O)=O)NCc1ccccc1,14.3%
16,COc1cccc2cc(C(=O)NNC(=O)c3ccc(Br)cc3)c(=O)oc12,12.6%
17,NC(=O)C(c1cccc(Cl)c1)c1ncc(C(F)(F)F)cc1Cl (stereo not drawn),16.4%
18,Cc1sc2nc(CSC(C)C(=O)Nc3cc(S(C)(=O)=O)ccc3Cl)[nH]c(=O)c2c1C (stereo not drawn),14.4%
19,O=C(Cc1ccc(Cl)cc1)OCC(=O)c1ccc[nH]1,4.96%
